Laboratory results from patent US20110034528A1, “Elansolids, Novel Natural Metabolites of Flexibacter and Antibiotically Active Derivatives Thereof” (priority 2008, published 2011).
At least one structure is not confirmed: it was looked up by name or label, or the drawing left a doubt.

Test system: pathogens
Experiment: MIC values of elansolid derivatives (Table 9)
Format: cell-based

| Compound | Minimal inhibition concentration [MIC] Bacillus subtilis | Minimal inhibition concentration [MIC] Micrococcus luteus | Minimal inhibition concentration [MIC] Mycobacter diernhoferi | Minimal inhibition concentration [MIC] Mycobacter lacticola | Minimal inhibition concentration [MIC] Streptococcus aureus MRS3 | Minimal inhibition concentration [MIC] Streptococcus faecalis | Minimal inhibition concentration [MIC] Corynebacter fascian | Minimal inhibition concentration [MIC] E. coli K12 (E. coli K12) |
| --- | --- | --- | --- | --- | --- | --- | --- | --- |
| CC(C=CC(=O)O)=CCC(O)C(C)C(O)C=CC=CC=CC1C(C)=CC2C(C1C(NC(Cc1ccc(N)cc1)C(=O)O)c1ccc(O)cc1)C(C)(C)CC2(C)O (mixture of isomers) [Elansolid 080-18] | B (B = 3.3 μg/ml) | G (G = 0.1 μg/ml) | A (A = 6.7 — μg/ml) | A (A = 6.7 — μg/ml) | A (A = 6.7 — μg/ml) |  |  |  |
| CC(C=CC(=O)O)=CCC(O)C(C)C(O)C=CC=CC=CC1C(C)=CC2C(C1C(Nc1ccc(-c3ccccc3)cc1C(=O)O)c1ccc(O)cc1)C(C)(C)CC2(C)O (mixture of isomers) [Elansolid 087-30] |  | E (E = 0.4 μg/ml) | A (A = 6.7 — μg/ml) |  | A (A = 6.7 — μg/ml) | C (C = 1.7 μg/ml) |  |  |
| CSc1ccc(-c2ccc(NC(c3ccc(O)cc3)C3C(C=CC=CC=CC(O)C(C)C(O)CC=C(C)C=CC(=O)O)C(C)=CC4C3C(C)(C)CC4(C)O)c(C(=O)O)c2)cc1 (mixture of isomers) [Elansolid 074-45] |  | B (B = 3.3 μg/ml) | A (A = 6.7 — μg/ml) |  |  | A (A = 6.7 — μg/ml) |  |  |
| COc1ccc(C(=O)O)cc1NC(c1ccc(O)cc1)C1C(C=CC=CC=CC(O)C(C)C(O)CC=C(C)C=CC(=O)O)C(C)=CC2C1C(C)(C)CC2(C)O (mixture of isomers) [Elansolid 076-21] | C (C = 1.7 μg/ml) | F (F = 0.21 μg/ml) | A (A = 6.7 — μg/ml) | A (A = 6.7 — μg/ml) | B (B = 3.3 μg/ml) | A (A = 6.7 — μg/ml) |  |  |
| CC(C=CC(=O)O)=CCC(O)C(C)C(O)C=CC=CC=CC1C(C)=CC2C(C1C(Nc1ccc(-c3ccsc3)cc1C(=O)O)c1ccc(O)cc1)C(C)(C)CC2(C)O (mixture of isomers) [Elansolid 086-29] |  | B (B = 3.3 μg/ml) | B (B = 3.3 μg/ml) |  |  | C (C = 1.7 μg/ml) | A (A = 6.7 — μg/ml) |  |
| CC(C=CC(=O)O)=CCC(O)C(C)C(O)C=CC=CC=CC1C(C)=CC2C(C1C(Nc1ccc(-c3ccoc3)cc1C(=O)O)c1ccc(O)cc1)C(C)(C)CC2(C)O (mixture of isomers) [Elansolid 088-29] |  | A (A = 6.7 — μg/ml) | B (B = 3.3 μg/ml) |  |  | A (A = 6.7 — μg/ml) |  |  |
| CC(C=CC(=O)O)=CCC(O)C(C)C(O)C=CC=CC=CC1C(C)=CC2C(C1C(Nc1cc(N)cc(C(=O)O)c1)c1ccc(O)cc1)C(C)(C)CC2(C)O (mixture of isomers) [Elansolid 084-11] |  | C (C = 1.7 μg/ml) | A (A = 6.7 — μg/ml) |  |  | A (A = 6.7 — μg/ml) |  |  |
| COC(=O)c1cc(NC(c2ccc(O)cc2)C2C(C=CC=CC=CC(O)C(C)C(O)CC=C(C)C=CC(=O)O)C(C)=CC3C2C(C)(C)CC3(C)O)cc(C(=O)O)c1 (mixture of isomers) [Elansolid 081-18] | C (C = 1.7 μg/ml) | F (F = 0.21 μg/ml) | A (A = 6.7 — μg/ml) | A (A = 6.7 — μg/ml) | A (A = 6.7 — μg/ml) | A (A = 6.7 — μg/ml) |  |  |
| CC(C=CC(=O)O)=CCC(O)C(C)C(O)C=CC=CC=CC1C(C)=CC2C(C1C(Sc1ccccc1C(=O)O)c1ccc(O)cc1)C(C)(C)CC2(C)O (mixture of isomers) [Elansolid 095-33] | D (D = 0.83 μg/ml) |  | A (A = 6.7 — μg/ml) | B (B = 3.3 μg/ml) |  | A (A = 6.7 — μg/ml) | A (A = 6.7 — μg/ml) | A (A = 6.7 — μg/ml) |
| CC(C=CC(=O)O)=CCC(O)C(C)C(O)C=CC=CC=CC1C(C)=CC2C(C1C(Nc1ccc(-c3ccccc3F)cc1C(=O)O)c1ccc(O)cc1)C(C)(C)CC2(C)O (mixture of isomers) [Elansolid 089-35] | A (A = 6.7 — μg/ml) | F (F = 0.21 μg/ml) | B (B = 3.3 μg/ml) |  | B (B = 3.3 μg/ml) | A (A = 6.7 — μg/ml) |  |  |
| CC(C=CC(=O)O)=CCC(O)C(C)C(O)C=CC=CC=CC1C(C)=CC2C(C1C(Nc1cc(O)cc(C(=O)O)c1)c1ccc(O)cc1)C(C)(C)CC2(C)O (mixture of isomers) [Elansolid 079-15] | A (A = 6.7 — μg/ml) | E (E = 0.4 μg/ml) | A (A = 6.7 — μg/ml) | A (A = 6.7 — μg/ml) |  |  | B (B = 3.3 μg/ml) |  |
| CC(C=CC(=O)O)=CCC(O)C(C)C(O)C=CC=CC=CC1C(C)=CC2C(C1C(Nc1cc(C(=O)O)cc(C(=O)O)c1)c1ccc(O)cc1)C(C)(C)CC2(C)O (mixture of isomers) [Elansolid 070-11] | B (B = 3.3 μg/ml) | E (E = 0.4 μg/ml) | A (A = 6.7 — μg/ml) | A (A = 6.7 — μg/ml) | A (A = 6.7 — μg/ml) |  | B (B = 3.3 μg/ml) |  |
| CC(C=CC(=O)O)=CCC(O)C(C)C(O)C=CC=CC=CC1C(C)=CC2C(C1C(Nc1ccc(S(=O)(=O)O)c3ccccc13)c1ccc(O)cc1)C(C)(C)CC2(C)O (mixture of isomers) [Elansolid 091-14] | C (C = 1.7 μg/ml) | F (F = 0.21 μg/ml) | A (A = 6.7 — μg/ml) | B (B = 3.3 μg/ml) | B (B = 3.3 μg/ml) |  |  |  |
| CC(C=CC(=O)O)=CCC(O)C(C)C(O)C=CC=CC=CC1C(C)=CC2C(C1C(Nc1ccc(C(=O)O)cc1)c1ccc(O)cc1)C(C)(C)CC2(C)O (mixture of isomers) [Elansolid 082-21] |  |  | A (A = 6.7 — μg/ml) |  |  |  |  |  |
